The source of these data is patent US12616673B2 (priority 2020, dated 2026).

This experiment deals with MV-4-11 cell line (FLT3-ITD+ AML). The settings on record: 10 nM R alone. How it is done:
FIG. 1. Cells of the MV-4-11 cell line were treated with 10 nM ATRA (R), 1.5 nM Btz (B) and 500 nM ATO, alone or in combination as indicated. A After 72 hours from the treatment, cell death was assessed by the propidium iodide (PI) exclusion method, as measured by flow cytometer (n=6±SEM, one way ANOVA statistical analysis). Cells of the MOLM-13 cell line were treated and analysed in the same manner, except for the concentration of Btz, which in this case is 2.25 nM (n=6±SEM, one way ANOVA statistical analysis). […]
Cell counts were performed by optical microscope counting in a Burker chamber, excluding dead cells by Trypan Blue staining. Cell death was assessed by flow cytometry (Cytoflex, Beckman Coulter) after staining the cells with 2.5 μg/ml propidium iodide (Sigma-Aldrich, St. Louis, MO, USA), a dye that can only penetrate dead cells. Reactive oxygen species (ROS) were measured by flow cytometry after incubation with the ROS-specific dye CM-H2DCFDA (Thermo Fisher Scientific, Waltham, MA, USA) at a concentration of 2 μM, following the manufacturer's instructions. Nrf-2 fluorescence in the nuclei was assessed by flow cytometry after isolating the nuclei as described for the preparation of the cytosolic lysate for the Western blot. […]

Consider `CC1=C(/C=C/C(C)=C/C=C/C(C)=C/C(=O)O)C(C)(C)CCC1` [R, all-trans retinoic acid], for which the “cell death, single agent” value was “sensitive”.
